Experimental data from the supplement of paper PMC3334620.
In all, about 33,000 sequences were measured (“E-score (-0.5 to 0.5)”: median about -0.032, highest 2% from about 0.36 on). Some of the results follow.

target: T1, Sko1 (UniProt Q02100); experiment: PBM E-score (8-mer binding enrichment) (E-score (-0.5 to 0.5)); higher = stronger / more preferred TF binding; most listed sequences are background and not binding sites; conditions: protein concentration: 200 nM; construct: GST-full length
T1 sequence: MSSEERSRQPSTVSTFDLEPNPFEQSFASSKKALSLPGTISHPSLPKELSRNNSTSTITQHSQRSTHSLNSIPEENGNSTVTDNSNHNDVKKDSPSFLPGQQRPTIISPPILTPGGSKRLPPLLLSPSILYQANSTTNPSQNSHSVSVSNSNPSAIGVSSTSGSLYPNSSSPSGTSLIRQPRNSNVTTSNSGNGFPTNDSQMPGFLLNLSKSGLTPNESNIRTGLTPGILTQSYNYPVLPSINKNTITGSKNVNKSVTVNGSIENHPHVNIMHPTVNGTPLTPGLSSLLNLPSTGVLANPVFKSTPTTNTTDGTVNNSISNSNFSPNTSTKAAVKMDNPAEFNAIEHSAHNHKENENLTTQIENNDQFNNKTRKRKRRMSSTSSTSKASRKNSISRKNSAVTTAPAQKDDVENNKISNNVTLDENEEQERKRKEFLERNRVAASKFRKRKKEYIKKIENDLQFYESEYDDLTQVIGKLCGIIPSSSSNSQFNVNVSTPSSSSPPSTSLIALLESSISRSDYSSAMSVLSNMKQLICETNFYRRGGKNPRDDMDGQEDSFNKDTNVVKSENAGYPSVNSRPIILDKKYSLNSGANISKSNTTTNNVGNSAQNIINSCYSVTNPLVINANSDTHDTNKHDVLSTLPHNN
Method: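 Universal 'all 10-mer' protein binding microarrays (Agilent AMADID 015681) probed with GST-tagged S. cerevisiae TFs (full-length or DBD) made by in vitro transcription/translation (PURExpress), about 100-200 nM. Bound TF was detected with fluorescent anti-GST. Each ungapped 8-mer (which stands for itself and its reverse complement) is scored by the PBM enrichment score (E-score), a modified Wilcoxon-Mann-Whitney statistic from -0.5 to +0.5, computed with the Universal PBM Analysis Suite. Scale: above 0.35 generally sequence-specific binding.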

| Sequence | PBM E-score |
| --- | --- |
| CTAGCGCA | -0.113 |
| AGTAACAC | -0.0531 |
| CAGAGCTA | -0.201 |
| AAAAGATT | 0.0227 |
| CGCACAAG | -0.0732 |
| CACATTTC | 0.057 |
| CAATACAA | 0.0426 |
| GGTGCCTA | -0.12 |
| CATAACTA | 0.194 |
| GAGGAGAA | -0.177 |
| CAGGGAGC | -0.26 |
| CTCAGTGC | -0.187 |
| CGGGTACG | 0.113 |
| CTTAGCCA | -0.122 |
| ACGAAGAG | 0.104 |
| AGAGCTAA | -0.0806 |
| CCGGATGC | -0.363 |
| AAGGAGAA | -0.0338 |
| ATAGTTGA | 0.169 |
| ATACTCTG | -0.0765 |
| ACCCAACA | -0.208 |
| CTTGATTC | 0.0171 |
| ATCTAATC | 0.246 |
| CTAGTAAG | 0.0111 |
| ACAGAAGG | -0.333 |

| Sequence | PBM E-score |
| --- | --- |
| CTTGAGTA | -0.183 |
| ACGCTACT | -0.0478 |
| ATTTATAA | 0.284 |
| AGATCATC | -0.0114 |
| CAGGCAGC | -0.349 |
| CGGCACAC | -0.123 |
| ACAGCCTG | -0.138 |
| CATGATGG | -0.122 |
| AGGTAGCC | -0.298 |
| GAAGCAGC | -0.314 |
| CATATTGC | 0.0177 |
| CATCGGCC | -0.156 |
| AAGTAGTG | -0.0308 |
| ATTGTTGA | 0.204 |
| ATAACACA | 0.214 |
| ATGCAAGC | 0.0965 |
| AGTTAGAC | -0.0303 |
| ATAGATCA | 0.193 |
| GGTAGCAA | -0.06 |
| TATCTAGA | -0.0188 |
| AGTCAGAA | -0.0299 |
| CTGGCAAC | -0.23 |
| CCTATCGC | -0.223 |
| ATACCTCG | -0.108 |
| AAGCGGGC | -0.335 |

| Sequence | PBM E-score |
| --- | --- |
| AGACGGCA | -0.143 |
| ATGGCGCC | -0.219 |
| AATCGCGA | 0.00152 |
| CCGATCCG | -0.19 |
| TATGTCAA | 0.327 |
| CCATAAGC | -0.186 |
| AAGTCGCA | 0.0692 |
| GGCAAGGA | -0.167 |
| CAGCACTG | -0.114 |
| AAGAGAGC | -0.264 |
| CCGGTAAA | -0.0691 |
| ATAGATAA | 0.0957 |
| ACTCGACC | -0.391 |
| CACTGTAG | 0.148 |
| GCCACAAC | 0.0215 |
| CCACAGGC | -0.295 |
| AGAGCGCC | -0.206 |
| AGTACCGA | -0.168 |
| ACGAGCCA | 0.0552 |
| GATTGACC | -0.0934 |
| AGCCATCG | -0.0786 |
| GACTGATC | -0.0259 |
| AAGCCCGC | -0.124 |
| AGTCTAAT | 0.144 |
| GATTGACA | 0.146 |

| Sequence | PBM E-score |
| --- | --- |
| AGGGTCTG | -0.348 |
| AGACATTC | 0.0613 |
| CCAAAGAA | 0.0437 |
| CAGACCAG | -0.132 |
| CCTGTGCA | -0.175 |
| ATAACTTA | 0.168 |
| GAGTTGTA | 0.0312 |
| CCCCGCCG | -0.311 |
| AGTGGAAT | 0.0217 |
| CGACTGAG | -0.15 |
| CATTAACA | 0.147 |
| CCTAACGC | 0.0788 |
| CATCAGTA | 0.137 |
| AGCTGAAT | -0.0471 |
| AACCGAGG | -0.314 |
| CGTTCCTC | -0.101 |
| CACTGTTA | -0.117 |
| ACCGCTGC | -0.353 |
| CATTGTAA | 0.0854 |
| AACCGCAG | -0.293 |
| CATCATGA | 0.339 |
| ACGACTCC | -0.0992 |
| ACAGCTGC | -0.191 |
| ATAACCTG | -0.0605 |
| ATGATTGA | 0.158 |

| Sequence | PBM E-score |
| --- | --- |
| ACCACACA | 0.0483 |
| CTGACCTA | 0.103 |
| GGAGGGCC | -0.22 |
| ATATGGTC | 0.136 |
| CCACGCAC | 0.153 |
| CTCGCTTA | -0.13 |
| ATCTGCCA | -0.0682 |
| AAATTGTT | 0.0907 |
| TGACAACA | 0.26 |
| ACTAGGCC | -0.352 |
| AGAGGTGG | -0.133 |
| AGTAAAGG | 0.0536 |
| CACGCGAG | 0.0242 |
| GAGCAGAC | -0.0861 |
| CACATGCC | -0.0143 |
| CTTGGGGA | -0.164 |
| ACTCGCAT | 0.15 |
| CCGTAAGG | -0.15 |
| GTTAGATA | 0.147 |
| GGAACCTA | -0.111 |
| CGCCTACG | 0.178 |
| ACTGAATG | 0.0356 |
| ATGAACGA | 0.204 |
| TGACCAAA | 0.0718 |
| AATAATCT | 0.125 |

| Sequence | PBM E-score |
| --- | --- |
| ATTAGGCG | 0.128 |
| ATGACATC | 0.44 |
| CCCTAGGG | -0.314 |
| CACCTCAA | -0.00438 |
| TTCAGGAA | 0.00982 |
| CTTGCCAA | -0.00384 |
| AAAGACCA | -0.183 |
| GGTGACGA | 0.422 |
| CAGCTCCC | -0.212 |
| GAACCTCC | -0.255 |
| ATTAAACA | 0.0803 |
| AATATCTA | 0.0627 |
| CATCGATA | 0.0761 |
| CGCCGACG | -0.0533 |
| ACACCCCC | -0.319 |
| GGCGCCAC | -0.138 |
| CAGCTTCC | -0.133 |
| GTGGGAAC | -0.143 |
| AAAGTAAG | 0.0864 |
| CATCGGGC | -0.0815 |
| TGGATACA | -0.00217 |
| GCCAGCAA | -0.205 |
| CCCGTTGA | -0.034 |
| GGCGGACC | -0.321 |
| CTAAACAC | 0.195 |

| Sequence | PBM E-score |
| --- | --- |
| ACGACTAA | -0.0201 |
| CACCTCAG | -0.162 |
| CGTGAGGC | -0.0837 |
| CAAGGCCA | -0.265 |
| AGGGATCG | -0.177 |
| ACCGCCCT | -0.195 |
| CAGATTGC | 0.0869 |
| GGCGGGAA | -0.257 |
| CTCATCCC | -0.204 |
| ACGACTAT | 0.252 |
| ATTTAGTC | 0.127 |
| GCCAACTA | -0.112 |
| CGAAAAGC | -0.121 |
| CCCGTGTC | -0.291 |
| CAGAGGAA | -0.229 |
| TGTCGTAA | 0.412 |
| CCATTCGC | -0.158 |
| TCCAAGCA | -0.0718 |
| CACGGTCG | -0.255 |
| TCTAGGCA | -0.147 |
| CTGTCTAA | -0.00363 |
| GATTCCGC | 0.0394 |
